Source: paper PMC9911399, “Two distinct binding modes provide the RNA-binding protein RbFox with extraordinary sequence specificity”
Residue numbers refer to the chain shown, from its start. This is one part of the list.

T1: RBFOX1 RRM (Homo sapiens, UniProt Q9NWB1 109-208)
T1 sequence: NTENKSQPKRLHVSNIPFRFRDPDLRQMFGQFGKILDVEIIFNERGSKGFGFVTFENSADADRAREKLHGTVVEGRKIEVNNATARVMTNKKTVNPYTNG

B1: GGAUACA (DNA:RNA)
RNA: GGGAGACCGGAAUUCAGAUUGUCCGGAUACAUUAAAUCCCGUCGUAGCCACCA
DNA 1: CAATCTGAATTCCGGTCTCCC
DNA 2: TGGTGGCTACGACGGGATT
B2: UCUUGGC (DNA:RNA)
RNA: B1 RNA with G25U, G26C, A27U, A29G, C30G, A31C
DNA 1: CAATCTGAATTCCGGTCTCCC
DNA 2: TGGTGGCTACGACGGGATT
B3: UGGAAAA (DNA:RNA)
RNA: B1 RNA with G25U, A27G, U28A, C30A
DNA 1: CAATCTGAATTCCGGTCTCCC
DNA 2: TGGTGGCTACGACGGGATT
B4: GAUACAU (DNA:RNA)
RNA: B1 RNA with G26A, A27U, U28A, A29C, C30A, A31U
DNA 1: CAATCTGAATTCCGGTCTCCC
DNA 2: TGGTGGCTACGACGGGATT
B5: ACACAGG (DNA:RNA)
RNA: B1 RNA with G25A, G26C, U28C, C30G, A31G
DNA 1: CAATCTGAATTCCGGTCTCCC
DNA 2: TGGTGGCTACGACGGGATT
B6: UCGUCCC (DNA:RNA)
RNA: B1 RNA with G25U, G26C, A27G, A29C, A31C
DNA 1: CAATCTGAATTCCGGTCTCCC
DNA 2: TGGTGGCTACGACGGGATT
B7: GCAGGUG (DNA:RNA)
RNA: B1 RNA with G26C, U28G, A29G, C30U, A31G
DNA 1: CAATCTGAATTCCGGTCTCCC
DNA 2: TGGTGGCTACGACGGGATT
B8: GGAUGUG (DNA:RNA)
RNA: B1 RNA with A29G, C30U, A31G
DNA 1: CAATCTGAATTCCGGTCTCCC
DNA 2: TGGTGGCTACGACGGGATT
B9: GGAGAUG (DNA:RNA)
RNA: B1 RNA with U28G, C30U, A31G
DNA 1: CAATCTGAATTCCGGTCTCCC
DNA 2: TGGTGGCTACGACGGGATT
B10: CCCGCAU (DNA:RNA)
RNA: GGGAGACCGGAAUUCAGAUUGUCCCCCGCAUUUAAAUCCCGUCGUAGCCACCA
DNA 1: CAATCTGAATTCCGGTCTCCC
DNA 2: TGGTGGCTACGACGGGATT
B11: UGUCGCG (DNA:RNA)
RNA: B1 RNA with G25U, A27U, U28C, A29G, A31G
DNA 1: CAATCTGAATTCCGGTCTCCC
DNA 2: TGGTGGCTACGACGGGATT
B12: CUCGGCU (DNA:RNA)
RNA: B10 RNA with C26U, C29G, A30C
DNA 1: CAATCTGAATTCCGGTCTCCC
DNA 2: TGGTGGCTACGACGGGATT
B13: CCUUUGU (DNA:RNA)
RNA: B10 RNA with C27U, G28U, C29U, A30G
DNA 1: CAATCTGAATTCCGGTCTCCC
DNA 2: TGGTGGCTACGACGGGATT
B14: UGAUAAA (DNA:RNA)
RNA: B1 RNA with G25U, C30A
DNA 1: CAATCTGAATTCCGGTCTCCC
DNA 2: TGGTGGCTACGACGGGATT
B15: CCACUAA (DNA:RNA)
RNA: B10 RNA with C27A, G28C, C29U, U31A
DNA 1: CAATCTGAATTCCGGTCTCCC
DNA 2: TGGTGGCTACGACGGGATT
B16: UAGAGGC (DNA:RNA)
RNA: GGGAGACCGGAAUUCAGAUUGUCCUAGAGGCUUAAAUCCCGUCGUAGCCACCA
DNA 1: CAATCTGAATTCCGGTCTCCC
DNA 2: TGGTGGCTACGACGGGATT
B17: GCCCUGU (DNA:RNA)
RNA: B10 RNA with C25G, G28C, C29U, A30G
DNA 1: CAATCTGAATTCCGGTCTCCC
DNA 2: TGGTGGCTACGACGGGATT
B18: GACUAUC (DNA:RNA)
RNA: B1 RNA with G26A, A27C, C30U, A31C
DNA 1: CAATCTGAATTCCGGTCTCCC
DNA 2: TGGTGGCTACGACGGGATT
B19: ACUGACC (DNA:RNA)
RNA: B10 RNA with C25A, C27U, C29A, A30C, U31C
DNA 1: CAATCTGAATTCCGGTCTCCC
DNA 2: TGGTGGCTACGACGGGATT
B20: GAGACUA (DNA:RNA)
RNA: B16 RNA with U25G, G29C, G30U, C31A
DNA 1: CAATCTGAATTCCGGTCTCCC
DNA 2: TGGTGGCTACGACGGGATT

Each binder was assayed against T1, RBFOX1 RRM (assay: EMSA; HiTS-Eq, 1 nM pool, 10 min; buffer printed only for the single-RNA assays: 10 mM Tris pH 7.5, 150 mM NaCl, 3.4 mM EDTA, 0.001% NP-40, 30 C). Conditions: tags: His6 N-terminal (pET28a); label: 5' 32P.
Outline: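 A pool of RNA with 7 randomized nucleotides, 5′-radiolabelled and with DNA-annealed flanks, was equilibrated at 1 nM for 10 min in 50 µL with purified RbFox RRM, wild type or mutant, across increasing protein concentrations. Free RNA was separated by 8% native PAGE, excised, reverse-transcribed, barcoded by PCR and sequenced. Relative association constants were obtained from read-count changes of each RNA species versus the control reaction and normalised to the cognate motif.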

Binder	binding signal
B1	0.00766 KA relative to UGCAUGU
B2	0.0154 KA relative to UGCAUGU
B3	0.0179 KA relative to UGCAUGU
B4	0.00572 KA relative to UGCAUGU
B5	0.00611 KA relative to UGCAUGU
B6	0.00735 KA relative to UGCAUGU
B7	0.0171 KA relative to UGCAUGU
B8	0.0207 KA relative to UGCAUGU
B9	0.0269 KA relative to UGCAUGU
B10	0.00786 KA relative to UGCAUGU
B11	0.0202 KA relative to UGCAUGU
B12	0.0125 KA relative to UGCAUGU
B13	0.0184 KA relative to UGCAUGU
B14	0.00742 KA relative to UGCAUGU
B15	0.00109 KA relative to UGCAUGU
B16	0.00808 KA relative to UGCAUGU
B17	0.0153 KA relative to UGCAUGU
B18	0.00429 KA relative to UGCAUGU
B19	0.0049 KA relative to UGCAUGU
B20	0.00483 KA relative to UGCAUGU
